These results are taken from PubChem BioAssay AID1240 (Sanford-Burnham Center for Chemical Genomics, 2008).

Screen size: about 50,000 compounds; about 800 (1.6%) showed an effect of 50% or more. The list shows a part of the results.

In this test the target is Bcl-2-like protein 10 (Homo sapiens) (UniProt Q9HD36). As to the kind of experiment: TR3 peptide-Bcl-B binding displacers, biochemical primary FP assay, phenotype converters (AID 1240).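 Also: 0% = Bcl-B with tracer peptide and DMSO and 100% = tracer peptide lacking Bcl-B.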 The following applies: GST-Bcl-B / FITC-TR3 peptide fluorescence polarization; stronger effect = higher value; compound at 3.75 mg/L. For orientation: Fluorescence polarisation rises when a labelled molecule tumbles more slowly, as on binding a larger partner.
Sequence of UniProt Q9HD36 (Q9HD36 whole entry, looked up): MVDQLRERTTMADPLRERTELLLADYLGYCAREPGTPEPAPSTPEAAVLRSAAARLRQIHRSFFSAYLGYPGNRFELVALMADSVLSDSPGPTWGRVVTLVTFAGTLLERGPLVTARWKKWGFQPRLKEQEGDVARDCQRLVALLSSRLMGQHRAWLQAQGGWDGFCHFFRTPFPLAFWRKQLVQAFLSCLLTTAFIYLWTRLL
For the compound `CCC(C)c1ccc(NC(=O)c2c(-c3ccccc3Cl)noc2C)cc1` (centres undefined), the displacement came out at 8.5%. Then `CCCOc1ccc(N2C(=O)CC(N(CCc3ccc(OC)c(OC)c3)C(=O)CC)C2=O)cc1` (centres undefined), with -2.6%; and `Cc1c(NC(=S)NCCc2ccccc2)c(=O)n(-c2ccccc2)n1C`, with -5%. `CC(=O)n1nc(C)c2c(-c3ccccc3)c3cc(Br)ccc3nc21`: the displacement worked out at 3.7%.

`Cc1cc2c(nc3s/c(=C/c4ccccc4)c(=O)n32)c(Br)c1C`: the displacement was -4.6%. Then `COc1ccccc1NC(=O)c1cc2cccc(OC)c2oc1=O`, with -2.8%; and `COc1cccc2sc(NC(=O)c3ccc(C)cc3)nc12`, with 2.1%. With `CC(C)(C)C1(C)OC(O)(C(F)(F)F)CC1=O` (centres undefined) the figure was -12.7%; with `CS/C(=N\S(=O)(=O)c1ccc(C)cc1)c1ccccc1`, 6%; with `CSc1nc(-c2ccccc2)nc(N)c1C(C)=O`, 2.6%. Then `Cc1ccc(C(=O)Oc2ccc(C=C3C(=O)NC(=O)NC3=O)cc2)cc1`, with 8.7%. Regarding `CC(=O)N1c2ccccc2NC2=C(C(=O)CC(C)(C)C2)C1c1ccc(Cl)cc1` (centres undefined), the displacement was determined as 5.3%. With `COc1cccc(NC(=O)c2cc(Cl)ccc2Cl)c1`, the displacement was 11.1%. With `NC(=O)C(=O)Nc1ccc2c(c1)OCCO2` the figure was 6.8%; with `Cc1ccc(OCCOc2cccc(/C=C3/SC(=S)N(C)C3=O)c2)cc1C`, 29.6%; with `Cc1ccc(CN2CCN(Cc3c[nH]c4ccccc34)CC2)cc1`, -8.2%.

For the compound `CCC(=O)NC(Nc1cc(C)on1)(C(F)(F)F)C(F)(F)F`, the displacement is 0.8%. On to `CCOC(=O)N1CCN(C(=O)/C(=C/c2ccc3c(c2)OCO3)NC(=O)c2cccs2)CC1`, for which the displacement was found to be 0.8%. Consider `C=CCN1C(=O)/C(=C\c2ccc(-c3ccc(C(=O)O)cc3)o2)C(=O)NC1=S`, for which the displacement was -53.6%. In the case of `COc1ccc(N2C(=O)NC(=O)/C(=C/c3ccc(-c4cccc([N+](=O)[O-])c4)o3)C2=O)cc1`, the displacement was -12.5%. Then `O=C(c1cccc(F)c1)N1CCN(c2ccc(F)cc2)CC1`, with -11.6%. Then `CC(=O)Oc1ccc(/C=c2/sc3nc(-c4ccc(C(C)(C)C)cc4)nn3c2=O)cc1`, with 7.3%. Then `COC(=O)c1cccc(N2C(=O)c3cccc([N+](=O)[O-])c3C2=O)c1`, with 0.4%; and `COc1ccc(C=Nc2ccccc2C(N)=O)c2ccccc12`, with -5.9%; and `Cn1/c(=N/N=C2CCCC2)sc2ccccc21`, with 8.2%. As for `CCc1ccc(N2CC(C(=O)NC)CC2=O)cc1` (centres undefined), the displacement came to 4%. Take `NC(=O)c1c(NC(=O)COc2ccc(Cl)cc2Cl)sc2c1CCCCCC2`: the displacement is -7.2%. With `Cn1c2ccccc2n2cc(-c3ccc([N+](=O)[O-])cc3)nc12` the figure was -6.3%. Then `Cc1ccccc1NC(=S)NCCOc1ccccc1Cc1ccccc1`, with 9.4%; and `Cc1ccc(CC(C)CC(=O)Nc2cc(C)ccc2C)cc1` (centres undefined), with -5.6%. With `Cc1ccc(C2=C/C(=C/c3ccc(-c4ccc([N+](=O)[O-])cc4)o3)C(=O)O2)cc1` the figure was -4.1%. Consider `Nc1nnc(CC(=O)ON/N=C/c2ccc(-c3ccccc3[N+](=O)[O-])o2)s1`, for which the displacement is -4.1%. With `CNC(=O)CN(c1cc(OC)ccc1OC)S(C)(=O)=O` the figure was 5.1%; with `COc1ccccc1OCCNC(=O)c1cccc2ccccc12`, -9.7%; with `O=C(/C=C/c1cccs1)N1CCN(C/C=C/c2ccccc2)CC1`, -6.5%.

Turning to `O=C(Nc1nc(CC23CC4CC(CC(C4)C2)C3)cs1)c1ccc(F)cc1`, the displacement amounted to 8.3%. Then `N#C/C(=C\c1ccc(Cl)cc1Cl)c1nc(-c2ccc(Br)cc2)cs1`, with -4.1%. As to `Cc1ccc(CCC(=O)Nc2ccc(Cl)cc2)o1`, the displacement is -4.5%. Then `COc1ccc(CSc2nnnn2C)cc1F`, with -16.2%. Then `O=C(N/N=C/c1c(F)cccc1Cl)c1ccc(O)cc1O`, with 3.9%; and `O=C(c1ccc(F)c(F)c1)N1CCN(c2cc(N3CCOCC3)c(F)cc2[N+](=O)[O-])CC1`, with -7.3%; and `Cc1ccc2nc(NNC(=O)CCC(=O)O)nc(-c3ccccc3)c2c1`, with -1.5%.

Consider `Cc1cccc(N=C2NC(=O)/C(=C\c3ccc([N+](=O)[O-])cc3)S2)c1C`, for which the displacement is 12.8%. With `O=[N+]([O-])c1ccc(-n2nnc3ccccc32)nc1` the figure was 7.7%. For the compound `Cc1cccc(OCCCCN2CCCC2)c1C`, the displacement is -4%. With `COc1ccc(CNC(=O)COc2ccc(C)cc2)cc1` the figure was -15.4%; with `O=C1CC(c2ccc3c(c2)OCO3)CC2=C1C(c1ccccc1OCc1ccccc1)Nc1ccccc1N2` (centres undefined), 10.5%; with `COc1cccc(NC(=O)Nc2cccc(C(F)(F)F)c2)c1`, -11.2%. For the compound `O=C1NC(=O)C(=Cc2cccc(OCc3ccc(Cl)cc3Cl)c2)C(=O)N1`, the displacement is -6.6%.

With `COC(=O)CN(c1ccc(Cl)c(Cl)c1)S(=O)(=O)c1ccccc1`, the displacement was -0.9%. In the case of `COc1cccc2c1NC(c1ccc(Br)cc1)C1CC=CC21` (centres undefined), the displacement was found to be 11.8%. Turning to `CCN(CC)S(=O)(=O)c1ccc(Cl)c(C(=O)Nc2cccc(C(=O)O)c2)c1`, the displacement was 2.8%. Turning to `CC(C)N(C(=O)COc1ccc(Cl)cc1Cl)C(C)C`, the displacement was -0.7%.

As for `O=C(NC1C2CC3CC(C2)CC1C3)c1ccc(Cl)cc1Cl` (centres undefined), the displacement was -2.2%. Then `COCCOC(=O)c1c(C)oc2ccc(OCc3ccccc3Br)cc12`, with 6.9%; and `COc1ccc(C2=N/C(=C/c3ccc(F)cc3)C(=O)N2c2ccc(O)cc2)cc1`, with 9%; and `CCN(C(=O)c1ccccc1Cl)c1ccccc1`, with 13.2%. With `C(=N\N=C(\Cc1nc2ccccc2[nH]1)c1ccccc1)/c1cccs1` the figure was -13.9%; with `CC(=O)CC(=O)Nc1cc(C)cc(C)c1`, 8%.

As to `C=CCc1c(C)[nH]c2ccc(C(=O)OCC)cc2c1=O`, the displacement is 6.3%. Then `COc1cc2oc(=O)c3c(c2cc1Cl)CCCC3`, with -3.2%; and `O=C(c1ccc(S(=O)(=O)c2ccccc2)cc1)N1CCOCC1`, with -10.6%.

As for `Cc1cccc(C)c1NC(=O)c1ccc([N+](=O)[O-])cc1`, the displacement was determined as 3.1%. Then `CC1=NN(c2ccc(S(N)(=O)=O)cc2)C(=O)/C1=C\c1ccc(-c2ccc([N+](=O)[O-])cc2)o1`, with -1.6%.

Take `CCOc1cccc(C(=O)Nc2sc(CC)cc2C(=O)OC)c1`: the displacement was 5.7%.

Turning to `COc1ccc(OCCSc2nc3ccccc3n2CC(=O)O)cc1`, the displacement was found to be 0%. For `COC(=O)c1ccc(C2C(C#N)=C(N)Oc3c2c(C)nn3-c2ccccc2)cc1` (centres undefined), the displacement was -11.6%. Then `CC1CN(C(=O)c2cc([N+](=O)[O-])cc([N+](=O)[O-])c2N)CC(C)O1` (centres undefined), with 3.9%; and `Cc1ccc(-c2cc(C(=O)Nc3ccncc3)c3ccccc3n2)cc1C`, with 36.1%.

Regarding `Cc1ccc(C=C2C(=O)NC(=O)N(c3cccc(Cl)c3)C2=O)s1`, the displacement is 87.1%. `O=C(O)Cc1ccc(/C(=N\O)c2cccs2)s1`: the displacement is 6.9%. For `COc1cc(NC(=O)COc2cc(C)ccc2C(C)(C)C)c(OC)cc1Cl`, the displacement was -1.9%. With `CC(=O)Oc1ccc(NC2=C(Cl)C(=O)c3ccccc3C2=O)cc1` the figure was -2.1%. With `Cc1ccc2c(c1NC(=O)c1ccc(-c3ccccc3)cc1)C(=O)c1ccccc1C2=O` the figure was 0.2%; with `Cc1cc(C(C)(C)C)nc2[nH]n(-c3ccccc3)c(=O)c12`, -2.3%. `COCCN(CCOC)Cc1c(C)[nH]c2ccccc2c1=O`: the displacement amounted to 2.5%.

On to `COc1ccc(C(=O)N2CCN(C(=O)c3ccc([N+](=O)[O-])cc3)CC2)cc1`, for which the displacement was -8.6%. With `COCCCNC(=O)C(=O)Nc1ccc(Cl)c(C(F)(F)F)c1` the figure was 0.1%; with `Cc1ccccc1C(=O)Nc1ccc2[nH]c(=O)[nH]c2c1`, -0.3%. With `COC(=O)C1=CNC=C(C(=O)OC)C1c1cccc(OCc2ccccc2)c1` the figure was 1.2%; with `COc1ccc(/C=N\NC(=O)c2ccc(Br)cc2)cc1Cl`, 3.8%; with `O=C1N/C(=N/c2ccccn2)SC1Cc1cccc(Cl)c1` (centres undefined), 0.8%. With `CCCOc1cccc(C(=O)Nc2ccc3c4c(cccc24)CC3)c1` the figure was 88.7%.

As to `O=S(=O)(NCc1ccccc1)c1ccc(Cl)c(S(=O)(=O)NCc2ccccc2)c1`, the displacement was -8.9%.

With `Cc1ccc(C(=O)c2cccc(C(=O)c3ccc(C)cc3)c2)cc1`, the displacement came out at 13.3%. With `O=C(O)c1ccc(N2C(=O)CC(N3CCN(c4cccc(Cl)c4)CC3)C2=O)cc1` (centres undefined) the figure was -6.7%; with `CCOc1ccccc1N(CC(=O)NCCc1ccccc1)S(=O)(=O)c1ccccc1`, 1%; with `CCn1cc(C(=O)O)c(=O)c2cc(F)c(N/N=C/c3ccccc3[N+](=O)[O-])cc21`, 11.1%.

With `Cc1ccc(S(=O)(=O)N(CC(=O)NC2CCCC2)Cc2ccccc2)cc1`, the displacement is -0.3%. In the case of `Cc1cc([N+](=O)[O-])c(-c2ccc(C=C3C(=O)c4ccccc4C3=O)o2)cc1Cl`, the displacement worked out at 14%.

In the case of `CCOc1cc(C(=O)Nc2cc(C(=O)OC)ccc2C(=O)OC)cc(OCC)c1OCC`, the displacement is -4%.

As for `CC/C(=C/C(=O)c1ccncc1)Nc1ccc(O)cc1`, the displacement worked out at 4.4%. With `CCOc1ccccc1C(=O)Nc1nc(-c2ccc(C)cc2C)cs1` the figure was -2.8%. Then `COc1ccc(OCC(=O)N2c3ccccc3Sc3ccc(C(F)(F)F)cc32)cc1`, with -3.4%; and `Cc1cccc(NC(=O)c2c(NC(=O)C(C)(C)C)sc3c2CCCC3)c1`, with -2.2%; and `COc1ccc(CCNC(=O)CN(c2ccccc2C)S(C)(=O)=O)cc1OC`, with 3.9%. With `CC1CC(C)CN(C(=O)Nc2ccccc2)C1` (centres undefined) the figure was -7.8%; with `Cc1ccc(C(=O)N/N=C/c2c3ccccc3cc3ccccc23)cc1[N+](=O)[O-]`, -8.2%. As to `O=C(Nc1ccc(NC(=O)c2cccs2)cc1)c1cccs1`, the displacement was -6.6%. In the case of `CCOc1cc(C2Nc3ccccc3NC3=C2C(=O)CC(c2ccc(OC)cc2)C3)cc(Br)c1O` (centres undefined), the displacement stood at 0.4%. Then `CC(=O)c1ccc(NC(=O)c2ccc(OCC(C)C)cc2)cc1`, with 11.6%. With `Cc1ccc(-c2nc(-c3ccccc3Cl)no2)cc1` the figure was 0.1%; with `O=C(COc1ccc(Cl)cc1Cl)Nc1ccc(Cl)cn1`, 13.2%. With `COc1cc(/C=C2/C(=O)N(c3ccccc3)N=C2C)cc(I)c1O` the figure was 13.1%.

On to `CCCCOn1nnc2ccc([N+](=O)[O-])cc21`, for which the displacement is -8.4%. Then `O=C(N/N=C/c1ccc(OCc2ccccc2)cc1)c1cnccn1`, with 12.3%. Then `COc1ccc(Br)cc1C(=O)Nc1cccc(C(C)=O)c1`, with 1.3%. On to `COc1ccc(NC2(c3ccccc3)C(=O)c3c(Cl)c(Cl)c(Cl)c(Cl)c3C2=O)cc1`, for which the displacement is 4.4%. With `C=CCOc1ccc(/C=C2/C(=O)NN(c3ccc(C)c(Cl)c3)C2=O)cc1OC` the figure was 15.5%.
